# Source: the supplement of paper PMC3334620
# In all, about 33,000 sequences were measured (“E-score (-0.5 to 0.5)”: median about -0.035, highest 2% from about 0.35 on). Some of the results follow.
# Molecular target: T1, Pdr3 (UniProt P33200)
# T1 sequence: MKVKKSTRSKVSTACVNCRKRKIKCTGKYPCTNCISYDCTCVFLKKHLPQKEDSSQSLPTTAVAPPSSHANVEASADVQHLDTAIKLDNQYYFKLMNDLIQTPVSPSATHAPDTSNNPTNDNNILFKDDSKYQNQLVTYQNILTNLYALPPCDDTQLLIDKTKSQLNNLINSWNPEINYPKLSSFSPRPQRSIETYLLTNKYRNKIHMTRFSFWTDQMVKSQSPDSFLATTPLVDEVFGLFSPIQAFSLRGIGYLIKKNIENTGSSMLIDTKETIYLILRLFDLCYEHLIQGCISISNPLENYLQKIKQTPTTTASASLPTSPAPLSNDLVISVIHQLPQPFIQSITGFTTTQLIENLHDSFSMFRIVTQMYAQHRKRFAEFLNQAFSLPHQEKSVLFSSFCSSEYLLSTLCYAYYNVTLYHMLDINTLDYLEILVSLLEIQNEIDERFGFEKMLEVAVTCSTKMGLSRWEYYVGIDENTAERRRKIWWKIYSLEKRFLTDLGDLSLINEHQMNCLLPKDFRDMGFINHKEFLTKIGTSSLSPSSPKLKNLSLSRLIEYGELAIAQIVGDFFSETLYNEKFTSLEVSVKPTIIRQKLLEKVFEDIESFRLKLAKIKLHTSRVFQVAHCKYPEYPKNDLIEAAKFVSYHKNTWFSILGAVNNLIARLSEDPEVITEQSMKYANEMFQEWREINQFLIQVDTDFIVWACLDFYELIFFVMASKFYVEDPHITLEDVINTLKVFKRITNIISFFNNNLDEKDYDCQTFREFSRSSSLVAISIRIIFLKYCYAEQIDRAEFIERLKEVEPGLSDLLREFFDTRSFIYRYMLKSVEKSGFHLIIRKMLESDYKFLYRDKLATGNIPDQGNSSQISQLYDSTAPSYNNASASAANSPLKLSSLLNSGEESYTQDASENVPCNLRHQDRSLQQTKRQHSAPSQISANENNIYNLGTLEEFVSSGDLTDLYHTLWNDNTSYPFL
# Assay: PBM E-score (8-mer binding enrichment) (E-score (-0.5 to 0.5)); higher = stronger / more preferred TF binding; most listed sequences are background and not binding sites
# Settings: protein concentration: 200 nM; construct: GST-full length
# Protocol: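 Universal 'all 10-mer' protein binding microarrays (Agilent AMADID 015681) probed with GST-tagged S. cerevisiae TFs (full-length or DBD) made by in vitro transcription/translation (PURExpress), about 100-200 nM. Bound TF was detected with fluorescent anti-GST. Each ungapped 8-mer (which stands for itself and its reverse complement) is scored by the PBM enrichment score (E-score), a modified Wilcoxon-Mann-Whitney statistic from -0.5 to +0.5, computed with the Universal PBM Analysis Suite. Scale: above 0.35 generally sequence-specific binding.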
row,Sequence,PBM E-score
1,CTATAACC,-0.218
2,CCATGCGG,0.15
3,AGTTATTA,-0.0901
4,AGCCTGTG,-0.265
5,ATCTCTAC,-0.135
6,CACTGCCG,0.255
7,GACTTTAA,-0.137
8,GTCATGCA,0.00118
9,CCCCCACG,-0.191
10,ACATCGGA,0.184
11,CATCTGTC,0.0352
12,CCAGTCCA,-0.0149
13,CCCAAATC,-0.122
14,AACAGGAA,-0.218
15,AGCAGGTC,-0.0101
16,AGACTGCA,-0.408
17,CCAGGATC,0.0238
18,ATCACTCG,-0.0866
19,AGCTGCAG,0.109
20,GTTTTAGA,-0.0726
21,CCTAAAGG,-0.204
22,GCTCCTTA,-0.0521
23,TCGCCCCA,-0.0315
24,AACTACGA,-0.109
25,AAGCACTA,-0.144

row,Sequence,PBM E-score
1,CACTAGGA,-0.203
2,TATTGGCA,-0.0348
3,ATGTTAGA,-0.318
4,CTATTATA,-0.0347
5,CCACTACC,-0.0383
6,GGAGCGCC,0.085
7,CCTCCGAC,0.0584
8,CCCGAGCC,0.265
9,CTAACACA,0.0909
10,CTCTTTGC,-0.125
11,AACAGTTC,0.117
12,GTTAACAA,0.0822
13,CGGTGCAG,0.0425
14,ACCTCTAC,0.0123
15,GGACCCCA,0.0742
16,GAGAGGTA,-0.195
17,CAACTTTC,0.15
18,GTAGATTA,0.194
19,CTAGACAC,-0.152
20,ATAGGCTA,-0.124
21,CCTAATTC,-0.0229
22,TGCAGGAA,0.0197
23,AAAAACCG,0.0966
24,AAGACGGA,0.283
25,TATCTGAA,0.0415

row,Sequence,PBM E-score
1,CTCGACCC,0.106
2,AATTTCGA,-0.139
3,ATAGGAGC,-0.179
4,GAAGAGAA,0.067
5,CATATGGG,0.00354
6,CAAATCAC,-0.121
7,AGATGCCT,-0.273
8,AGTAAACG,-0.0758
9,CGATGAAA,-0.0442
10,AATACTTC,0.0403
11,CGTAACCC,-0.0878
12,ACATCGTC,-0.11
13,CATTGTCC,0.184
14,GTCGCACA,-0.0784
15,GCGCCAAA,0.128
16,CCTCGGAC,0.282
17,ACTCGACG,0.0934
18,GCCTCCGC,0.115
19,GCCGTCCC,0.216
20,CCGATTAA,0.128
21,GTCTGGTA,-0.133
22,GATGAAGC,0.0523
23,GGCTCGAA,0.00199
24,TCTACCCA,-0.0331
25,GAGGACCC,-0.0304

row,Sequence,PBM E-score
1,ATAATCAG,-0.0167
2,CATGGGTA,0.0552
3,CGTATGAC,-0.0884
4,ACCTAGCG,0.00103
5,ATAGCTGG,0.0363
6,AGGGGCGG,0.188
7,CAATAGGG,-0.141
8,CGAGTCCC,0.3
9,AAACCCAC,0.0488
10,ACATTGTC,0.183
11,CACGTAAG,-0.149
12,CCGCTGTC,0.151
13,AAGCCTGC,-0.0948
14,ATTGACAA,-0.154
15,TATACCGA,0.125
16,CCAGCAAA,0.04
17,AAATTTGC,-0.0657
18,AAATACTA,-0.0698
19,TAACAACA,-0.0129
20,CTTGTTGC,-0.149
21,ATTAGCCG,0.0673
22,CACGTGCG,-0.0457
23,CACCTCCA,0.0474
24,ACACGTTA,-0.28
25,AAAAATTC,-0.0497

row,Sequence,PBM E-score
1,AAAAGCAC,-0.291
2,ACCATAGC,-0.00487
3,CACACGGA,0.304
4,GGGCTACC,-0.19
5,CTGCGACA,-0.0812
6,ATAGTACG,0.157
7,CAATGATC,-0.129
8,ATTGGACA,0.112
9,AAGCCAAG,-0.0343
10,CATCGATG,-0.0255
11,ATGTAGAC,-0.239
12,ATAGTTAG,-0.0506
13,TAGGATGA,-0.0798
14,GTATTGTA,-0.0341
15,CTCAAGAG,-0.404
16,AGCTCTAA,-0.0947
17,AGCATGCA,-0.265
18,CACTAATA,0.1
19,AGACACCT,-0.08
20,ATATTGTA,-0.0347
21,CCTTACCG,0.152
22,AGTTTGAA,0.106
23,CTCTCAGC,-0.266
24,CCCGCTCG,0.133
25,ACGCAGAA,-0.0971

row,Sequence,PBM E-score
1,ACAATTGA,-0.101
2,GTTTAAGA,-0.113
3,ACCGCAGC,0.0911
4,ATACCAGG,-0.0422
5,AGATTAAC,-0.0696
6,CCACGGGC,0.261
7,AAGGGCCG,-0.0299
8,GGTACCCA,-0.149
9,CTCGGGCA,0.163
10,CTTAGTGA,-0.146
11,AGACCATA,0.0909
12,CGAGCCGA,0.0934
13,ATGACTCC,-0.0497
14,GCAAGTCC,-0.0656
15,AACATGCC,0.0419
16,CCGCTACA,0.0753
17,ATTACCAA,-0.0826
18,CAACTACA,-0.0758
19,CCCTGGGA,-0.0191
20,GCCAGCCA,-0.102
21,ATGTACCA,-0.0823
22,CGGTGGAC,0.0962
23,GACATGGA,-0.0625
24,CCTGGAGA,-0.296
25,GATGTGAC,-0.0769

row,Sequence,PBM E-score
1,CACTCGAG,-0.0697
2,GATCGATC,0.0712
3,CCTCCTCC,-0.0324
4,GCTTACAA,-0.356
5,AGCCTCGA,-0.144
6,AAAGGGAT,-0.154
7,AGAAAGCC,-0.112
8,CTCTCCTC,-0.26
9,CGTTCTAC,-0.145
10,CAAGAAAA,0.021
11,TACCCGCA,0.241
12,CAATGGAG,-0.169
13,AGTCACCG,-0.0593
14,AGAAACCC,-0.0287
15,TAATGTAA,-0.116
16,AGCAGCCA,-0.0997
17,GACTTGAA,-0.0344
18,CCCTGAAG,-0.216
19,CCAAGGTC,-0.0505
20,GCGGTCTA,0.00056
21,AGCAATTG,-0.205
22,ACGCAGCT,-0.219
